Experimental findings from US20090118135A1, “METHODS AND COMPOUNDS FOR REGULATING APOPTOSIS” (The Burnham Institute, priority 2007, published 2009) are described below.

The experiment deals with all six anti-apoptotic members of the Bcl-2 family. As to the kind of experiment: FITC-Bid BH3 FPA competition analysis with Bcl-2 family fusion proteins. The experiment is classed as binding. The following applies: 100 nM GST-fusion proteins, 5 nM FITC-Bid BH3; result in words. As for the experimental part:
FIGS. 11A-G are graphs showing the results of competition assays using a fluorescence polarization assay with the green tea compound epigallecatechin (EGCG) and various Bcl-2 family proteins. 100 nM of GST-Bcl-2 fusion proteins were incubated with various concentrations of EGCG or control compound ECG (“C”) for 2 min in PBS in 50 μl. 5 nM FITC-Bid BH3 peptide was added to bring the final volume to 100 μl and the final DMSO concentration to 1%. Fluorescence polarization was measured after 20 min.
A FPA was performed to determine the binding affinity of FITC-Bid BH3 peptide to Bcl-2 proteins. Serial concentrations of Bcl-2 proteins were incubated with 5 nM FITC-Bid BH3 peptide (FITC-Ahx-[…]; SEQ ID NO: 55) in PBS using a 96 well black plate (Greiner bio-one). […] IC50 determinations were performed using GraphPad Prism software (GraphPad, Inc., San Diego, Calif.). […] Fluorescence polarization was measured after 10 min. Compounds that reduced the fluorescence polarization by 50% were considered hits.
The green tea compound epigallecatechin (EGCG) is known to bind both Bcl-2 and Bcl-XL (Leone et al., Cancer Res. 63:8118-8121, 2003). The ability of EGCG to compete with FITC-Bid BH3 peptide was analyzed by FPA using the protocol described above. […]

For `O=C(O[C@@H]1Cc2c(O)cc(O)cc2O[C@@H]1c1cc(O)c(O)c(O)c1)c1cc(O)c(O)c(O)c1` [EGCG, epigallecatechin], the “competition with FITC-Bid BH3 peptide” value is “bound to all six anti-apoptotic members of the Bcl-2 family to different extents”.
